# Measured values as given in PubChem BioAssay AID485294 (National Center for Advancing Translational Sciences (NCATS), 2010).
# Where “and” joins values, the source holds several entries; their conditions need not be identical. Equal values may be shown once. In all, about 370,000 compounds went through this assay and about 150 (0.041%) were called active. The shares of active, inactive and inconclusive entries below differ from those in the screen. The call rests on the fitted dose curve; in most records, active means well fitted inhibition curve with a large enough effect; inconclusive means small, poorly fitted or top-dose-only effect; inactive means flat fitted curve, though single readings scatter. Potencies beside an inconclusive call are fits to weak or partial responses and may not hold up.
# Target: Beta-lactamase (Escherichia coli (strain K12)) (UniProt P00811)
# Test: qHTS Inhibitors of AmpC Beta-Lactamase (assay with detergent); further: nearly all actives have a fitted effect of over 25% in size
# Conditions: AmpC hydrolysis of nitrocefin, absorbance 480 nm, 0.01% Triton; series mostly up to 114 µM
# Procedure, shortened: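 20 mM phosphate pH 7.0 + 0.01% (detergent screen) or 0.0001% Triton X-100; 5.3 nM AmpC reagent; cpd preinc 15 min RT; nitrocefin (800 uM stock) to start; A480 q20 s × 4 min; Activity was normalised to no-enzyme and no-compound control wells.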
# Potency means the concentration at half of the fitted maximal effect; tags describe the fitted curve by direction and shape.
# UniProt P00811, sequence (P00811 whole entry, looked up): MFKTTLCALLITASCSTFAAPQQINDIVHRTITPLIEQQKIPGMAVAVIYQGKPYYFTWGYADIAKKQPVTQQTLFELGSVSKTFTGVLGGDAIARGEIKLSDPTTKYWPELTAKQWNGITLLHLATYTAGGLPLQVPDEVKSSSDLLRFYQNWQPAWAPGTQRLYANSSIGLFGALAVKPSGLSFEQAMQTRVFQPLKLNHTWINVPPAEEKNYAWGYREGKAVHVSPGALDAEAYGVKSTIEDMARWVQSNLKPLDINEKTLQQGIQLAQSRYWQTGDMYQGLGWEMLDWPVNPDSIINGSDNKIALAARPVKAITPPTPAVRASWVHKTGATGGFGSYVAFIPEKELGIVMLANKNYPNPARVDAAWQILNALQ
row,Structure (SMILES),Potency
1,Cc1ccccc1NC(=O)C1CCCN1S(=O)(=O)c1ccccc1C(F)(F)F (stereo unspecified),inactive
2,O=C(CC(c1ccccc1)c1ccccc1O)N1CCCC1 (stereo unspecified),"inconclusive: 39.8 µM [inhibitor, single point]"
3,O=C(NCC1CCCO1)c1nn2c(C(F)(F)F)cc(-c3cc(Br)cs3)nc2c1Br (stereo unspecified),inactive
4,CN(c1ccccc1C(=O)O)S(C)(=O)=O,inactive
5,COc1ccc(-c2cnnc(N/N=C/c3ccc(O)c(OC)c3)n2)cc1,inactive
6,CCOCCCn1c(SCC(=O)Nc2ccccc2)nc2ccccc2c1=O,"inconclusive: 44.7 µM [inhibitor, partial curve, poor fit]"
7,CCOC(=O)c1ccc(NC(=O)CSc2nnc(-c3cccs3)n2C)cc1,inactive
8,Clc1ccc(-n2nnnc2-c2ccccc2)cc1,"inconclusive: 35.5 µM [inhibitor, full curve, poor fit]"
9,CCCC(c1nnnn1CS(=O)(=O)c1ccc(C)cc1)N1CCN(C2CCCC2)CC1 (stereo unspecified),inactive
10,Clc1ccc(Nc2ncnc3ccc(Br)cc23)cc1,inactive
11,CN(C)c1ccc(C(=O)NCc2ccc3c(c2)OCO3)cc1,"inconclusive: 2.82 µM [inhibitor, full curve, poor fit]"
12,O=C(Cc1c[nH]c2ccccc12)Nc1ccc(N2CCOCC2)cc1,"inconclusive: 39.8 µM [inhibitor, single point]"
13,N=C1C(c2nc3ccccc3[nH]2)=C(O)CN1c1ccccc1,"inconclusive: 44.7 µM [inhibitor, partial curve, poor fit]"
14,CCOc1cc(/C=N\NC(=O)c2ccc(NC(=O)C(C)(C)C)cc2)ccc1OC(=O)c1ccc(C)cc1,"inconclusive: 25.1 µM [inhibitor, single point]"
15,COCCN=C1NN=C(c2ccc(C)c([N+](=O)[O-])c2)CS1,inactive
16,CC(C)c1ccc(NC(=O)c2cccnc2)cc1,"inconclusive: 12.6 µM [inhibitor, full curve]"
17,CCc1ccc(N2C(=O)CC(N3CCC(C(=O)OC)CC3)C2=O)cc1 (stereo unspecified),inactive
18,c1ccc(-c2nc(NCc3ccco3)c3ccccc3n2)nc1,"inconclusive: 56.2 µM [inhibitor, partial curve, poor fit]"
19,CCOc1ccccc1CNCC1CCCO1 (stereo unspecified),inactive
20,Cc1cc2nc(-c3ccc[nH]c3=O)n(Cc3ccc(F)cc3)c2cc1C,inactive
21,COc1ccc(OC)c(N(CC(N)=O)S(=O)(=O)c2ccc(OC)c(OC)c2)c1,"inconclusive: 0.631 µM [inhibitor, full curve, poor fit]"
22,O=S(=O)(c1ccccc1)n1nc(-c2ccc(Cl)cc2)nc1NCc1ccc(F)cc1,inactive
23,COc1cccc(NC(=O)Cn2c(=O)c3cccn3c3ccc(F)cc32)c1,inactive

row,Structure (SMILES),Potency
1,O=[N+]([O-])c1ccn(-c2nc(-c3cccs3)cc(C(F)(F)F)n2)n1,"inconclusive: 89.1 µM [inhibitor, single point]"
2,Fc1cccc(F)c1CSc1nc2ccccc2[nH]1,"inconclusive: 0.631 µM [inhibitor, full curve, poor fit]"
3,COc1ccc(-n2c(=O)c3c4c(sc3n(Cc3c(F)cccc3Cl)c2=O)CN(C(C)=O)CC4)cc1OC,inactive
4,O=C(Oc1ccc2c(=O)c(Oc3ccc4ccccc4c3)coc2c1)c1cccnc1,inactive
5,CCOC(=O)[C@H]1[C@H]2COc3ccccc3[C@@H]2N2C(=O)c3ccccc3NC(=O)[C@@]12C,"inconclusive: 3.55 µM [inhibitor, single point]"
6,COc1ccc(CSCCNC(=S)Nc2ccccc2)cc1Cl,"inconclusive: 50.1 µM [inhibitor, partial curve]"
7,Nc1nonc1C(=O)N/N=C/c1cccc([N+](=O)[O-])c1,"inconclusive: 0.631 µM [inhibitor, full curve, poor fit]"
8,Cc1nnc(NC(=O)CSC2CCCCC2)s1,"inconclusive: 39.8 µM [inhibitor, partial curve]"
9,CCOC(=O)c1cnc2c(Cl)c(Cl)ccc2c1Nc1ccc(N(C)C)cc1,inactive
10,O=C(NCCS(=O)(=O)N1CCN(Cc2ccccc2)CC1)c1ccccc1,"inconclusive: 0.631 µM [inhibitor, full curve, poor fit]"
11,Cc1ccc(-n2c(SCCN)nnc2-c2cccc(C)c2)cc1,"inconclusive: 100 µM [inhibitor, single point]"
12,CCOC(=O)c1c(-c2ccc(C)o2)csc1NC(=S)NC(=O)c1ccccc1Br,"inconclusive: 6.31 µM [inhibitor, full curve, poor fit]"
13,CCOC(=O)C(=O)NCC(c1ccco1)S(=O)(=O)c1cccs1 (stereo unspecified),inactive
14,CCOC(=O)C1=C(C)Nc2nc(SC)nn2C1c1ccc(C(=O)OC)cc1 (stereo unspecified),"inconclusive: 20 µM [inhibitor, full curve]"
15,Cc1ccccc1NC(=O)c1cc2ccccc2o1,"inactive and inconclusive: 5.62 µM [inhibitor, full curve, poor fit]"
16,O=C(CSc1ccccc1)N1CCN(S(=O)(=O)c2ccccc2F)CC1,"inconclusive: 5.01 µM [inhibitor, partial curve, poor fit]"
17,CCc1nnc(NC(=O)CSc2nnc(COc3ccccc3C)o2)s1,"inconclusive: 50.1 µM [inhibitor, full curve, poor fit]"
18,CCC(=O)OCCn1c(=O)c2cc3c(=O)n(CCOC(=O)CC)c(=O)c3cc2c1=O,"inconclusive: 4.47 µM [inhibitor, single point]"
19,O=c1c(-c2ccc(F)cc2)[n+]([O-])c2ccccc2n1OCc1ccccn1,inactive
20,CSc1ccc(CCNC(=O)CN2C(=O)COc3ccc(S(=O)(=O)N4CCCC4)cc32)cc1,inactive
21,Cc1c(N=Cc2c(O)n(Cc3ccccc3)c(=O)[nH]c2=O)c(=O)n(-c2ccccc2)n1C,"inconclusive: 0.631 µM [inhibitor, full curve]"
22,OCC1OC(n2nc3ccccc3n2)C(O)C(O)C1O (stereo unspecified),"inconclusive: 7.08 µM [inhibitor, full curve, poor fit]"
23,COc1ccc2oc(C(=O)OCC(=O)Nc3ccc(N4CCOCC4)cc3)c(C)c2c1,"inconclusive: 56.2 µM [inhibitor, full curve, poor fit]"
